# Test results reported in PubChem BioAssay (Tox21).
# Several values for one entry are separate records, joined by “and”; a condition that tells them apart may be missing. Equal entries are not always repeated. This list was built around the results that the source calls inconclusive (neither active nor inactive); the mix of calls is not that of the screen. For part of these data: A potency beside an inconclusive call is a rough fit, not a confirmed value. Where a structure was tested more than once in an assay, its records may differ in their call. Activity calls are given as the source filed them. Calls come from the whole dose curve; as a rule, active = well fitted curve in the direction sought with a large enough effect in the repeat runs; inconclusive = weak or mixed curves; inactive = no such curve, though single readings can be large; an effect the other way counts as inactive or inconclusive.
# Legend:
# [1] = A CellTox Green Cytotoxicity Assay to monitor cytotoxicity in HEK293 cells - 40 hour (AID 1224871); note: nearly all actives have a fitted effect of over 45% in size
# Method in brief: (§1)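 Real-time, in one plate: 600 HEK293 cells/well with dead-cell DNA dye, pinned compound after 5 h, 37 C incubation over 40 h; viable cells give no appreciable fluorescence.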
# [2] = qHTS RealTime-Glo MT Cell Viability Assay in HEK293 cells - 16 hour (AID 1224872); note: nearly all actives have a fitted effect of over 50% in size
# Method in brief: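 Tox21 10K qHTS, HEK293, 600 cells/well, RealTime-Glo reagent co-dispensed with cells; 5 h preincubation, compound by pintool, 37 C, luminescence at 0–40 h.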
# [3] = qHTS RealTime-Glo MT Cell Viability Assay in HepG2 cells - 8 hour (AID 1224873); note: nearly all actives have a fitted effect of over 55% in size
# Method in brief: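 HepG2 cells (600/well) mixed with RealTime-Glo MT reagent, settled 5 h at 37 C/5% CO2 before compound addition. Nonlytic NanoLuc luminescence from viable-cell prosubstrate reduction read repeatedly during 40 h treatment at 37 C.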
# [4] = A CellTox Green Cytotoxicity Assay to monitor cytotoxicity in HEK293 cells - 24 hour (AID 1224875); note: nearly all actives have a fitted effect of over 45% in size
# Method in brief: as §1
# [5] = qHTS RealTime-Glo MT Cell Viability Assay in HEK293 cells - 40 hour (AID 1224874); conditions: RealTime-Glo luminescence; max response: stronger effect = lower value; note: nearly all actives have a fitted effect of over 50% in size
# Method in brief: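 Kinetic, non-lysing viability readout. Seed HEK293 (600/well) with reagent, incubate 5 h at 37 C/5% CO2, pin 23 nL compound in DMSO, incubate at 37 C, read luminescence at 0, 8, 16, 24, 32, 40 h.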
# Potency is the fitted concentration of half-maximal effect; tags give direction and shape of the fitted curve.
smiles,measurement,setting,value
Oc1ccccc1-c1ccccc1,Potency,[1],"inconclusive: 49 µM [activator, single point] and inconclusive: 56.2 µM [activator, single point]"
same,Potency,[2],"inconclusive: 61.6 µM [cytotoxic, single point]"
C=C(C)C(=O)OCCCCOC(=O)C(=C)C,Potency,[1],inactive
C[C@]12CC[C@@H](O)C[C@@H]1CC[C@@H]1[C@@H]2CC[C@]2(C)C(=O)CC[C@@H]12,Potency,[1],active: 49 µM
same,Potency,[2],active: 38.9 µM
same,Potency,[3],"inconclusive: 38.9 µM [falling, partial curve, poor fit]"
same,Potency,[4],"inconclusive: 54.9 µM [activator, single point]"
CCCCNP(N)(N)=S,Potency,[1],"inconclusive: 0.347 µM [activator, partial curve, poor fit]"
same,Potency,[2],inactive
II,Potency,[1],active: 38.9 µM
same,Potency,[3],"inconclusive: 38.9 µM [falling, partial curve]"
CC(=O)OC1(c2ccccc2)CCN(CCc2ccccc2)CC1,Potency,[1],"inconclusive: 56.3 µM [activator, single point]"
same,Potency,[2],active: 25.1 µM
CC(C)(OOC(C)(C)c1ccccc1)c1ccccc1,Potency,[1],active: 24.2 µM and active: 49 µM
same,Potency,[2],inactive
C[C@]12CC[C@H]3[C@@H](CCC4=CC(=O)CC[C@@H]43)[C@@H]1CC[C@@H]2OC(=O)CCc1ccco1,Potency,[1],"inconclusive: 26.8 µM [activator, single point]"
same,Potency,[2],inactive
same,Potency,[4],"inconclusive: 26.8 µM [activator, partial curve, poor fit]"
CC(C)CCCCCCOC(=O)c1ccccc1C(=O)OCCCCCCC(C)C,Potency,[1],inactive
FC(F)(F)c1cccc(C2=CCN(CCc3ccc4ccccc4c3)CC2)c1,Potency,[1],inactive
same,Potency,[2],inactive
CCC1(CC)C(=O)N=C(O)NC1=O,Potency,[1],inactive
ClC1=C(Cl)[C@]2(Cl)[C@H]3[C@H]([C@H]4C=C[C@H]3C4)[C@@]1(Cl)C2(Cl)Cl,Potency,[1],"inconclusive: 61.6 µM [activator, single point]"
CN(C)C(=S)[S-].CN(C)C(=S)[S-].[Cu+2],Potency,[1],active: 2.38 µM
same,Potency,[3],active: 6.7 µM
Nc1ccc(N=Nc2ccc(-c3ccc(N=Nc4c(S(=O)(=O)O)cc5cc(S(=O)(=O)O)c(N=Nc6ccccc6)c(O)c5c4N)cc3)cc2)c(N)c1,Potency,[1],inactive
CC1=C2C[C@H]3[C@@H](CC=C4C[C@@H](O)CC[C@@]43C)[C@@H]2CC[C@]12O[C@@H]1C[C@H](C)CN[C@H]1[C@H]2C,Potency,[1],"inconclusive: 26.8 µM [activator, single point]"
same,Potency,[2],"inconclusive: 21.3 µM [cytotoxic, partial curve]"
same,Potency,[4],"inconclusive: 26.8 µM [activator, single point]"
CCOP(=S)(OCC)Oc1cc(Cl)c(Br)cc1Cl,Potency,[1],inactive
COC(C)(C)C,Potency,[1],"inconclusive: 59.9 µM [activator, single point]"
IC(I)=C(I)I,Potency,[1],active: 54.9 µM
same,Potency,[2],active: 9.77 µM
same,Potency,[4],"inconclusive: 54.9 µM [activator, single point]"
CC(=O)OC(c1ccccc1)C(Cl)(Cl)Cl (stereo unspecified),Potency,[1],active: 19.5 µM
CCCC(Cn1cncn1)c1ccc(Cl)cc1Cl (stereo unspecified),Potency,[1],"inconclusive: 54.9 µM [activator, single point]"
same,Potency,[2],"inconclusive: 24.5 µM [cytotoxic, partial curve]"
same,Potency,[3],"inconclusive: 49 µM [falling, partial curve, poor fit]"
same,Potency,[4],"inconclusive: 61.6 µM [activator, single point]"
OC(c1ccc(Cl)cc1)(c1cncnc1)c1ccccc1Cl (stereo unspecified),Potency,[1],active: 19.8 µM and inactive
same,Potency,[2],"inconclusive: 24.5 µM [cytotoxic, partial curve]"
CC(=O)C(C)(C)C,Potency,[1],inactive
CN(N=O)c1ccc([N+](=O)[O-])cc1,Potency,[1],inactive
CCCN(CC1CC1)c1c([N+](=O)[O-])cc(C(F)(F)F)cc1[N+](=O)[O-],Potency,[1],inactive
same,Potency,[2],"inconclusive: 24.5 µM [cytotoxic, partial curve, poor fit]"
[O]=[Cr][O][Cr]=[O],Potency,[1],inactive
CC(C)(C)C(O)C(Oc1ccc(Cl)cc1)n1cncn1 (stereo unspecified),Potency,[1],active: 5.49 µM
same,Potency,[2],"inconclusive: 19.5 µM [cytotoxic, partial curve]"
C[C@]12CC[C@H]3[C@@H](CCC4=CC(=O)CC[C@@]43C)[C@@H]1CC[C@@H]2O,Potency,[1],"inconclusive: 61.2 µM [activator, single point]"
same,Potency,[2],"inconclusive: 48.6 µM [cytotoxic, partial curve]"
same,Potency,[5],active: 48.6 µM
